Among all 3,200 compounds or so, about 300 (9.4%) showed activity. The list shows a part of the results, in another mix than the full data.
Test system: A673/TR/shEF
Assay: cell viability (LOESS-normalised, relative to median of negative controls) (log2 ratio); higher = more viable cells (less compound effect), active = hit call of the paper (over 3 MAD below the median)
Conditions: treatment time: 72 h
In short: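 For three days, A673/TR/shEF Ewing sarcoma cells in 384-well plates (1,500 per well) were treated with library compounds at two or more concentrations or with DMSO controls, after doxycycline had been added or withheld 24 h beforehand to induce EWS-FLI1 shRNA knockdown. Viability was read by CellTiter-Glo luminescence on an Envision reader. The data were LOESS-corrected per plate, divided by the median of negative controls and log2-transformed.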

[1] = 0.25 µM, library screen: screen2, EWS-FLI1 expression: high (no doxycycline)
[2] = 0.25 µM, library screen: screen2, EWS-FLI1 expression: low (doxycycline-induced shRNA knockdown)
[3] = 2.5 µM, library screen: screen2, EWS-FLI1 expression: high (no doxycycline)
[4] = 2.5 µM, library screen: screen2, EWS-FLI1 expression: low (doxycycline-induced shRNA knockdown)
[5] = 0.25 µM, library screen: screen1, EWS-FLI1 expression: high (no doxycycline)
[6] = 0.25 µM, library screen: screen1, EWS-FLI1 expression: low (doxycycline-induced shRNA knockdown)
[7] = 2.5 µM, library screen: screen1, EWS-FLI1 expression: high (no doxycycline)
[8] = 2.5 µM, library screen: screen1, EWS-FLI1 expression: low (doxycycline-induced shRNA knockdown)
[9] = 0.103 µM, library screen: screen3, EWS-FLI1 expression: high (no doxycycline)
[10] = 0.103 µM, library screen: screen3, EWS-FLI1 expression: low (doxycycline-induced shRNA knockdown)
[11] = 0.308 µM, library screen: screen3, EWS-FLI1 expression: high (no doxycycline)
[12] = 0.308 µM, library screen: screen3, EWS-FLI1 expression: low (doxycycline-induced shRNA knockdown)
[13] = 0.926 µM, library screen: screen3, EWS-FLI1 expression: high (no doxycycline)
[14] = 0.926 µM, library screen: screen3, EWS-FLI1 expression: low (doxycycline-induced shRNA knockdown)
[15] = 2.8 µM, library screen: screen3, EWS-FLI1 expression: high (no doxycycline)
[16] = 2.8 µM, library screen: screen3, EWS-FLI1 expression: low (doxycycline-induced shRNA knockdown)
[17] = 8.3 µM, library screen: screen3, EWS-FLI1 expression: high (no doxycycline)
[18] = 8.3 µM, library screen: screen3, EWS-FLI1 expression: low (doxycycline-induced shRNA knockdown)
[19] = 25 µM, library screen: screen3, EWS-FLI1 expression: high (no doxycycline)
[20] = 25 µM, library screen: screen3, EWS-FLI1 expression: low (doxycycline-induced shRNA knockdown)
[21] = 25 µM, library screen: screen2, EWS-FLI1 expression: high (no doxycycline)
[22] = 25 µM, library screen: screen2, EWS-FLI1 expression: low (doxycycline-induced shRNA knockdown)

Measured: cell viability (log2)

N[C@@H](Cc1cnc[nH]1)C(=O)O
inactive: [1] 0.191 | [2] -0.014 | [3] 0.0336 | [4] 0.0663

CC(=O)NNC(=O)N1Cc2ccccc2Oc2ccc(Cl)cc21
inactive: [1] 0.0851 | [2] 0.0315 | [3] 0.115 | [4] 0.0739

CNC[C@H](O)c1cccc(O)c1
inactive: [5] 0.117 | [6] 0.145 | [1] 0.178 | [2] 0.0908 | [7] 0.168 | [8] 0.172 | [3] 0.16 | [4] 0.0449

N=C(N)SCCc1cnc[nH]1
inactive: [1] 0.0723 | [2] 0.107 | [3] 0.124 | [4] 0.153

C[C@]12CC[C@@H](O)C[C@H]1CCc1ccccc12
inactive: [5] 0.111 | [6] 0.098 | [7] 0.147 | [8] 0.145

O=C(O[C@@H]1Cc2c(O)cc(O)cc2O[C@@H]1c1cc(O)c(O)c(O)c1)c1cc(O)c(O)c(O)c1
inactive: [5] -0.0662 | [6] 0.0913 | [7] 0.0131 | [8] 0.0765

CC[C@H](CC[C@@H](C)[C@H]1CC[C@H]2[C@@H]3CC=C4C[C@@H](OC(C)=O)CC[C@]4(C)[C@H]3CC[C@]12C)C(C)C
inactive: [5] 0.121 | [6] 0.139 | [7] 0.109 | [8] 0.182

CC1(C)OC(=O)CC(O)[C@@]2(C)C1CC(=O)[C@]1(C)C2CCC2(C)C(c3ccoc3)OC(=O)[C@H]3O[C@]321 (some centres not stated)
inactive: [5] 0.0277 | [6] 0.0481 | [7] 0.0671 | [8] 0.0691

Nc1ncnc2c1ncn2C1OC(C(=O)NC2CC2)C(O)C1O (configuration not stated)
inactive: [1] 0.208 | [2] 0.0695 | [3] 0.136 | [4] 0.0888

CNc1cc(NS(=O)(=O)c2ccc(N)cc2)nc(NC)n1
inactive: [1] 0.178 | [2] 0.0243 | [3] 0.142 | [4] 0.115

CO[C@H]1C[C@@H]2CC[C@@H](C)[C@@](O)(O2)C(=O)C(=O)N2CCCC[C@H]2C(=O)O[C@H]([C@H](C)C[C@@H]2CC[C@@H](O)[C@H](OC)C2)CC(=O)[C@H](C)/C=C(\C)[C@@H](O)[C@@H](OC)C(=O)[C@H](C)C[C@H](C)/C=C/C=C/C=C/1C
active: [9] -0.737 | [10] -0.644 | [11] -0.758 | [12] -0.612 | [13] -0.692 | [14] -0.65 | [15] -0.692 | [16] -0.756 | [17] -0.726 | [18] -0.651 | [19] -0.719 | [20] -0.63

COC(=O)C[C@H]1C(C)(C)[C@@H](OC(C)=O)[C@@H]2CC3=C4CC(=O)O[C@@H](c5ccoc5)[C@]4(C)CC[C@@H]3[C@@]1(C)C2=O
inactive: [5] 0.0358 | [6] 0.0144 | [7] 0.0778 | [8] 0.108

CC1=C(C)C(=O)C(CCCCC#CCCCC#CCO)=C(C)C1=O
inactive: [1] 0.148 | [2] 0.178 | [3] 0.112 | [4] 0.155

CC(N)(Cc1ccc(O)cc1)C(=O)O (configuration not stated)
inactive: [1] -0.00334 | [2] 0.104 | [3] 0.116 | [4] 0.0957

C#C[C@]1(O)CC[C@H]2[C@@H]3CCc4cc(OC)ccc4[C@H]3CC[C@@]21C
inactive: [9] 0.0245 | [10] 0.0772 | [11] 0.0555 | [12] 0.0124 | [13] 0.0491 | [14] 0.0579 | [15] 0.115 | [16] 0.0315 | [17] 0.13 | [18] -0.0351 | [19] 0.0698 | [20] 0.0968

CC(C)NCC(O)c1ccc(NS(C)(=O)=O)cc1 (configuration not stated)
inactive: [9] 0.0973 | [10] 0.11 | [1] 0.208 | [2] 0.0726 | [11] 0.0771 | [12] 0.0613 | [13] 0.124 | [14] 0.123 | [3] 0.245 | [4] -0.00505 | [15] 0.0983 | [16] 0.0513 | [17] 0.0678 | [18] 0.0705 | [19] 0.123 | [20] 0.119

COc1ccc2cccc(CCNC(C)=O)c2c1
inactive: [9] 0.138 | [10] 0.00955 | [11] 0.12 | [12] 0.117 | [13] 0.0565 | [14] 0.0398 | [15] 0.137 | [16] 0.034 | [17] 0.108 | [18] 0.0253 | [19] 0.155 | [20] 0.121

CN(C)CCCCSC(=N)N
inactive: [1] 0.142 | [2] 0.0436 | [3] 0.0893 | [4] 0.0473

CC1=CC(=O)CC(C)(C)[C@@]1(O)/C=C/C(C)=C\C(=O)O
inactive: [5] 0.103 | [6] 0.084 | [7] 0.143 | [8] 0.165

CCN(CC)CCCC(C)Nc1c2ccc(Cl)cc2nc2ccc(OC)cc12 (configuration not stated)
active: [21] -4.23 | [22] -2.71

O=C(O)[C@@H]1C[C@@H](C(=O)O)N1
inactive: [1] 0.176 | [2] 0.14 | [3] 0.0697 | [4] 0.0934

CC1(C)C2CC(=O)O[C@@]3(C)C4=CC(=O)O[C@@H](c5ccoc5)[C@]4(C)CCC3[C@@]2(C)C=C[C@H]1O (some centres not stated)
inactive: [5] 0.0723 | [6] 0.119 | [7] 0.0233 | [8] 0.0548

O=C(O)P(=O)(O)O
inactive: 0.025 µM, library screen: screen2, EWS-FLI1 expression: high (no doxycycline) 0.177 | 0.025 µM, library screen: screen2, EWS-FLI1 expression: low (doxycycline-induced shRNA knockdown) 0.0342 | [5] 0.113 | [6] 0.056 | [1] 0.16 | [2] 0.0393 | [7] 0.153 | [8] 0.182 | [3] 0.0316 | [4] 0.0945 | [21] 0.139 | [22] 0.0475

COc1ccccc1NC(=O)C1=C(C)NC(=O)NC1c1cccc(Cl)c1 (configuration not stated)
inactive: [5] 0.0986 | [6] 0.0367 | [7] 0.0178 | [8] 0.0125

From the supplement of paper PMC6089552
